± gives the standard deviation of the averaged measurements. Growth of baker's yeast expressing single-residue variants of Pneumocystis jirovecii dihydrofolate reductase in 8.8 or 44 µM methotrexate (about 75% and 90% inhibition of the wild type). Selection coefficient per generation; 0 = like wild type, above 0 = less sensitive, below 0 = more sensitive or loss of function. No active / inactive call per row; the paper calls resistant above 0.220 (8.8 µM) or 0.243 (44 µM) together with a significance test. At 44 µM about 15% of codons end with one read or none, so the lowest values are floors (replicate rank correlation 0.74; 0.94 at 8.8 µM).

B1: UniProt A0EPZ9; numbered along this chain (parent)
chain: MDWQKSLTLIVALTLSRGIGLKNDLPWKLKSDMMFFSRVTSGLLVTRSTGQMNVVLMGRKTWESLPAHSRPLKNRINVVISRQEVLDLGGGAYHARSLDDALALLSQIYDSTSKIQLNRVFVIGGGELCKAAMEHSRLNRIIATVIHNEVDCDVFFPIDFRSSQSCLPWRKQDHSVLEAWVGSKVPQGKINENGFIYEFEMWIRDI

The series covers variants of B1. The experiment in a line: selection coefficient against synonymous wild-type codons (log2 per generation); higher = faster growth than wild type. Particulars: with Saccharomyces cerevisiae carrying the variant on a plasmid. On the procedure: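 Pooled growth of yeast carrying single-residue variants of P. jirovecii dihydrofolate reductase (own DFR1 gene intact), two passages at 30 °C, three cultures, sequenced before and after. Codons with under 15 starting reads are left out; codons of one change are averaged.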

In the case of I141A, the “selection coefficient against synonymous wild-type codons (log2)” value (“selection coefficient … (log2)” below) (methotrexate 8.8 µM) is -0.437 ± 0.089 and the “selection coefficient … (log2)” value (methotrexate 44 µM) was -0.224 ± 0.046.

On to L7H, for which the “selection coefficient … (log2)” value is, setting by setting: (methotrexate 8.8 µM) -0.228 ± 0.043; (methotrexate 44 µM) -0.166 ± 0.13.

On to L7C, for which the “selection coefficient … (log2)” value by setting is: (methotrexate 8.8 µM) 0.0773 ± 0.03; (methotrexate 44 µM) -0.00323 ± 0.029.

With S97V, the “selection coefficient … (log2)” value (methotrexate 8.8 µM) was -0.654 ± 0.024 and the “selection coefficient … (log2)” value (methotrexate 44 µM) was -0.152 ± 0.057.

Regarding D32I, the “selection coefficient … (log2)” value was -0.52 ± 0.12 (methotrexate 8.8 µM) and -0.217 ± 0.17 (methotrexate 44 µM).

With D32G, the “selection coefficient … (log2)” value is -0.59 ± 0.1 (methotrexate 8.8 µM) and -0.251 ± 0.074 (methotrexate 44 µM).

Turning to S106Q, the “selection coefficient … (log2)” value (methotrexate 8.8 µM) stood at 0.0375 ± 0.047 and the “selection coefficient … (log2)” value (methotrexate 44 µM) amounted to 0.111 ± 0.0088.

For the variant D24V, the “selection coefficient … (log2)” value is -0.0749 ± 0.061 (methotrexate 8.8 µM) and -0.0635 ± 0.11 (methotrexate 44 µM).

As to D24P, the “selection coefficient … (log2)” value (methotrexate 8.8 µM) was -0.422 ± 0.13 and the “selection coefficient … (log2)” value (methotrexate 44 µM) is -0.216 ± 0.077.

Turning to D24N, the “selection coefficient … (log2)” value was -0.219 ± 0.14 (methotrexate 8.8 µM) and -0.0939 ± 0.17 (methotrexate 44 µM).

As to D24I, the “selection coefficient … (log2)” value was -0.0997 ± 0.054 (methotrexate 8.8 µM) and -0.0459 ± 0.13 (methotrexate 44 µM).

For the variant A12P, the “selection coefficient … (log2)” value was -0.425 ± 0.12 (methotrexate 8.8 µM) and -0.237 ± 0.17 (methotrexate 44 µM).

Regarding A12Q, the “selection coefficient … (log2)” value (methotrexate 8.8 µM) was -0.381 ± 0.087 and the “selection coefficient … (log2)” value (methotrexate 44 µM) was -0.125 ± 0.11.

In the case of Y109N, the “selection coefficient … (log2)” value is 0.158 ± 0.051 (methotrexate 8.8 µM) and 0.209 ± 0.066 (methotrexate 44 µM).

As to F155N, the “selection coefficient … (log2)” value by setting is: (methotrexate 8.8 µM) 0.346 ± 0.067; (methotrexate 44 µM) 0.281 ± 0.097.

Take N139Y: the “selection coefficient … (log2)” value (methotrexate 8.8 µM) is -0.221 ± 0.028 and the “selection coefficient … (log2)” value (methotrexate 44 µM) was -0.369 ± 0.042.

With C166D, the “selection coefficient … (log2)” value is -0.0394 ± 0.0065 (methotrexate 8.8 µM) and -0.0402 ± 0.013 (methotrexate 44 µM).

S69L: the “selection coefficient … (log2)” value came to 0.302 ± 0.055 (methotrexate 8.8 µM) and 0.322 ± 0.072 (methotrexate 44 µM).

As for T61S, the “selection coefficient … (log2)” value runs as follows: (methotrexate 8.8 µM) 0.0195 ± 0.044; (methotrexate 44 µM) 0.0402 ± 0.12.

Regarding L88Q, the “selection coefficient … (log2)” value was -0.478 ± 0.16 (methotrexate 8.8 µM) and -0.282 ± 0.065 (methotrexate 44 µM).

Regarding N193C, the “selection coefficient … (log2)” value runs as follows: (methotrexate 8.8 µM) -0.143 ± 0.11; (methotrexate 44 µM) -0.106 ± 0.059.

As for R75K, the “selection coefficient … (log2)” value (methotrexate 8.8 µM) stood at 0.137 ± 0.043 and the “selection coefficient … (log2)” value (methotrexate 44 µM) was 0.229 ± 0.11.

R75P: the “selection coefficient … (log2)” value is -0.518 ± 0.12 (methotrexate 8.8 µM) and -0.0726 ± 0.073 (methotrexate 44 µM).

In the case of R47Q, the “selection coefficient … (log2)” value (methotrexate 8.8 µM) amounted to 0.0731 ± 0.088 and the “selection coefficient … (log2)” value (methotrexate 44 µM) turned out to be 0.0231 ± 0.028.

Turning to R47Y, the “selection coefficient … (log2)” value is -0.247 ± 0.037 (methotrexate 8.8 µM) and -0.26 ± 0.2 (methotrexate 44 µM).

For I196Y, the “selection coefficient … (log2)” value is -0.0705 ± 0.12 (methotrexate 8.8 µM) and -0.00647 ± 0.064 (methotrexate 44 µM).

Turning to I196A, the “selection coefficient … (log2)” value is 0.0717 ± 0.044 (methotrexate 8.8 µM) and -0.0214 ± 0.097 (methotrexate 44 µM).

With I196V, the “selection coefficient … (log2)” value is 0.0336 ± 0.024 (methotrexate 8.8 µM) and -0.0115 ± 0.038 (methotrexate 44 µM).

On to R119C, for which the “selection coefficient … (log2)” value by setting is: (methotrexate 8.8 µM) -0.0832 ± 0.048; (methotrexate 44 µM) 0.0548 ± 0.17.

For the origin of these results see the supplement of paper PMC11125491.
